# Some of the results follow.
# B1: SSR1 (Sclerotium rolfsii), A0A0M3KL30 (protein)
# chain: TYKITVRVYQTNPDAFFHPVEKTVWKYANGGTWTITDDQHVLTMGGSGTSGTLRFHADNGESFTATFGVHNYKRWCDIVTNLAADETGMVINQQYYSQKNREEARERQLSNYQVKNAKGRNFQIVYTEAEGNDLHANLIIG
# Columns and labels:
# Test in all cases: glycan array binding signal (z-score within array); higher = stronger binding
# Conditions in all cases: glycan notation: IUPAC condensed, linker removed
# Gal(a1-3)Gal(b1-4)GlcNAc = biological target: Gal(a1-3)Gal(b1-4)GlcNAc
# In short: (§1)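 The binding signal is a Z-score computed within each array. Data were drawn from 3228 arrays in the Consortium for Functional Glycomics database, restricted to those with a known protein sequence. Scores were averaged over arrays of the same protein sequence at different concentrations or buffers, and over linkers, and negative values can be taken as non-binding.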
# [1] = biological target: Gal(a1-3)Gal(b1-4)GlcNAc(b1-2)Man
# In short: as §1
# [2] = biological target: Gal(a1-3)Gal(b1-4)GlcNAc(b1-2)Man(a1-3)[Gal(a1-3)Gal(b1-4)GlcNAc(b1-2)Man(a1-6)]Man(b1-4)GlcNAc(b1-4)GlcNAc
# In short: as §1
# [3] = biological target: Gal(a1-3)Gal(b1-4)GlcNAc(b1-3)GalNAc
# In short: as §1
# [4] = biological target: Gal(a1-3)Gal(b1-4)GlcNAc(b1-6)GalNAc
# In short: as §1
# [5] = biological target: Gal(a1-3)Gal(b1-4)[Fuc(a1-3)]GlcNAc
# In short: as §1
# [6] = biological target: Gal(a1-3)Gal(b1-4)[Fuc(a1-3)]GlcNAc(b1-2)Man(a1-3)[Gal(a1-3)Gal(b1-4)[Fuc(a1-3)]GlcNAc(b1-2)Man(a1-6)]Man(b1-4)GlcNAc(b1-4)GlcNAc
# In short: as §1
# Gal(a1-3)GalNAc = biological target: Gal(a1-3)GalNAc
# In short: as §1
# [7] = biological target: Gal(a1-3)[Gal(a1-4)]Gal(b1-4)GlcNAc
# In short: as §1
# [8] = biological target: Gal(a1-4)Gal(b1-3)GlcNAc(b1-2)Man(a1-3)[Gal(a1-4)Gal(b1-3)GlcNAc(b1-2)Man(a1-6)]Man(b1-4)GlcNAc(b1-4)GlcNAc
# In short: as §1
# Gal(a1-4)Gal(b1-4)Glc = biological target: Gal(a1-4)Gal(b1-4)Glc
# In short: as §1
# Gal(a1-4)Gal(b1-4)GlcNAc = biological target: Gal(a1-4)Gal(b1-4)GlcNAc
# In short: as §1
# [9] = biological target: Gal(a1-4)Gal(b1-4)GlcNAc(b1-2)Man(a1-3)[Gal(a1-4)Gal(b1-4)GlcNAc(b1-2)Man(a1-6)]Man(b1-4)GlcNAc(b1-4)GlcNAc
# In short: as §1
# [10] = biological target: Gal(a1-4)Gal(b1-4)GlcNAc(b1-3)Gal(b1-4)Glc
# In short: as §1
# Gal(a1-4)GlcNAc = biological target: Gal(a1-4)GlcNAc
# In short: as §1
# Gal(a1-6)Glc = biological target: Gal(a1-6)Glc
# In short: as §1
# Gal(b1-2)Gal = biological target: Gal(b1-2)Gal
# In short: as §1
# Gal(b1-3)Gal = biological target: Gal(b1-3)Gal
# In short: as §1
# Gal(b1-3)Gal(b1-4)GlcNAc = biological target: Gal(b1-3)Gal(b1-4)GlcNAc
# In short: as §1
# Gal(b1-3)GalNAc = biological target: Gal(b1-3)GalNAc
# In short: as §1
# [11] = biological target: Gal(b1-3)GalNAc(a1-3)[Fuc(a1-2)]Gal(b1-4)Glc
# In short: as §1
# [12] = biological target: Gal(b1-3)GalNAc(a1-3)[Fuc(a1-2)]Gal(b1-4)GlcNAc
# In short: as §1
# Gal(b1-3)GalNAc(b1-3)Gal = biological target: Gal(b1-3)GalNAc(b1-3)Gal
# In short: as §1
# [13] = biological target: Gal(b1-3)GalNAc(b1-3)Gal(a1-4)Gal(b1-4)Glc
# In short: as §1
# [14] = biological target: Gal(b1-3)GalNAc(b1-4)Gal(b1-4)Glc
# In short: as §1
# [15] = biological target: Gal(b1-3)GalNAc(b1-4)[Neu5Ac(a2-3)]Gal(b1-4)Glc
# In short: as §1
# Gal(b1-3)GlcNAc = biological target: Gal(b1-3)GlcNAc
# In short: as §1
# [16] = biological target: Gal(b1-3)GlcNAc(a1-3)Gal(b1-4)GlcNAc
# In short: as §1
# [17] = biological target: Gal(b1-3)GlcNAc(a1-6)Gal(b1-4)GlcNAc
# In short: as §1
# Gal(b1-3)GlcNAc(b1-2)Man = biological target: Gal(b1-3)GlcNAc(b1-2)Man
# In short: as §1
# [18] = biological target: Gal(b1-3)GlcNAc(b1-2)Man(a1-3)[Gal(b1-3)GlcNAc(b1-2)Man(a1-6)]Man(b1-4)GlcNAc(b1-4)GlcNAc
# In short: as §1
# [19] = biological target: Gal(b1-3)GlcNAc(b1-2)Man(a1-3)[Gal(b1-3)GlcNAc(b1-2)Man(a1-6)]Man(b1-4)GlcNAc(b1-4)[Fuc(a1-6)]GlcNAc
# In short: as §1
# [20] = biological target: Gal(b1-3)GlcNAc(b1-2)Man(a1-3)[GlcNAc(b1-4)][Gal(b1-3)GlcNAc(b1-2)Man(a1-6)]Man(b1-4)GlcNAc(b1-4)GlcNAc
# In short: as §1
# [21] = biological target: Gal(b1-3)GlcNAc(b1-2)[Gal(b1-3)GlcNAc(b1-6)]Man(a1-6)[Gal(b1-3)GlcNAc(b1-2)Man(a1-3)]Man(b1-4)GlcNAc(b1-4)GlcNAc
# In short: as §1
# [22] = biological target: Gal(b1-3)GlcNAc(b1-3)Gal(b1-3)GlcNAc
# In short: as §1
# [23] = biological target: Gal(b1-3)GlcNAc(b1-3)Gal(b1-4)Glc
# In short: as §1
# [24] = biological target: Gal(b1-3)GlcNAc(b1-3)Gal(b1-4)GlcNAc
# In short: as §1
# [25] = biological target: Gal(b1-3)GlcNAc(b1-3)Gal(b1-4)GlcNAc(b1-2)Man(a1-3)[Gal(b1-3)GlcNAc(b1-3)Gal(b1-4)GlcNAc(b1-2)Man(a1-6)]Man(b1-4)GlcNAc(b1-4)GlcNAc
# In short: as §1
# [26] = biological target: Gal(b1-3)GlcNAc(b1-3)Gal(b1-4)GlcNAc(b1-2)[Gal(b1-3)GlcNAc(b1-3)Gal(b1-4)GlcNAc(b1-6)]Man(a1-6)[Gal(b1-3)GlcNAc(b1-3)Gal(b1-4)GlcNAc(b1-2)Man(a1-3)]Man(b1-4)GlcNAc(b1-4)[Fuc(a1-6)]GlcNAc
# In short: as §1
# [27] = biological target: Gal(b1-3)GlcNAc(b1-3)Gal(b1-4)GlcNAc(b1-3)Gal(b1-4)GlcNAc(b1-2)[Gal(b1-3)GlcNAc(b1-3)Gal(b1-4)GlcNAc(b1-3)Gal(b1-4)GlcNAc(b1-6)]Man(a1-6)[Gal(b1-3)GlcNAc(b1-3)Gal(b1-4)GlcNAc(b1-3)Gal(b1-4)GlcNAc(b1-2)Man(a1-3)]Man(b1-4)GlcNAc(b1-4)[Fuc(a1-6)]GlcNAc
# In short: as §1
# [28] = biological target: Gal(b1-3)GlcNAc(b1-3)Gal(b1-4)GlcNAc(b1-6)[Gal(b1-3)GlcNAc(b1-3)]Gal(b1-4)Glc
# In short: as §1
# [29] = biological target: Gal(b1-3)GlcNAc(b1-3)Gal(b1-4)[Fuc(a1-3)]GlcNAc
# In short: as §1
# [30] = biological target: Gal(b1-3)GlcNAc(b1-3)Gal(b1-4)[Fuc(a1-3)]GlcNAc(b1-6)[Gal(b1-3)GlcNAc(b1-3)]Gal(b1-4)Glc
# In short: as §1
# [31] = biological target: Gal(b1-3)GlcNAc(b1-3)GalNAc
# In short: as §1
# [32] = biological target: Gal(b1-3)GlcNAc(b1-6)Gal(b1-4)GlcNAc
# In short: as §1
binder,measurement,setting,value
B1,glycan array binding signal (z-score),Gal(a1-3)Gal(b1-4)GlcNAc,-0.338
same,glycan array binding signal (z-score),[1],-0.345
same,glycan array binding signal (z-score),[2],-0.321
same,glycan array binding signal (z-score),[3],0.577
same,glycan array binding signal (z-score),[4],0.045
same,glycan array binding signal (z-score),[5],-0.338
same,glycan array binding signal (z-score),[6],-0.308
same,glycan array binding signal (z-score),Gal(a1-3)GalNAc,-0.251
same,glycan array binding signal (z-score),[7],-0.338
same,glycan array binding signal (z-score),[8],-0.352
same,glycan array binding signal (z-score),Gal(a1-4)Gal(b1-4)Glc,-0.335
same,glycan array binding signal (z-score),Gal(a1-4)Gal(b1-4)GlcNAc,-0.332
same,glycan array binding signal (z-score),[9],-0.336
same,glycan array binding signal (z-score),[10],-0.35
same,glycan array binding signal (z-score),Gal(a1-4)GlcNAc,-0.348
same,glycan array binding signal (z-score),Gal(a1-6)Glc,-0.339
same,glycan array binding signal (z-score),Gal(b1-2)Gal,-0.335
same,glycan array binding signal (z-score),Gal(b1-3)Gal,-0.326
same,glycan array binding signal (z-score),Gal(b1-3)Gal(b1-4)GlcNAc,-0.345
same,glycan array binding signal (z-score),Gal(b1-3)GalNAc,0.786
same,glycan array binding signal (z-score),[11],1.15
same,glycan array binding signal (z-score),[12],1.31
same,glycan array binding signal (z-score),Gal(b1-3)GalNAc(b1-3)Gal,-0.338
same,glycan array binding signal (z-score),[13],-0.337
same,glycan array binding signal (z-score),[14],-0.34
same,glycan array binding signal (z-score),[15],-0.336
same,glycan array binding signal (z-score),Gal(b1-3)GlcNAc,-0.329
same,glycan array binding signal (z-score),[16],-0.34
same,glycan array binding signal (z-score),[17],-0.343
same,glycan array binding signal (z-score),Gal(b1-3)GlcNAc(b1-2)Man,-0.34
same,glycan array binding signal (z-score),[18],-0.284
same,glycan array binding signal (z-score),[19],-0.333
same,glycan array binding signal (z-score),[20],-0.146
same,glycan array binding signal (z-score),[21],-0.322
same,glycan array binding signal (z-score),[22],-0.335
same,glycan array binding signal (z-score),[23],-0.347
same,glycan array binding signal (z-score),[24],-0.321
same,glycan array binding signal (z-score),[25],-0.32
same,glycan array binding signal (z-score),[26],-0.27
same,glycan array binding signal (z-score),[27],-0.276
same,glycan array binding signal (z-score),[28],-0.327
same,glycan array binding signal (z-score),[29],-0.326
same,glycan array binding signal (z-score),[30],-0.347
same,glycan array binding signal (z-score),[31],-0.344
same,glycan array binding signal (z-score),[32],-0.339

# From the supplement of paper PMC8728848
